In paper PMC3777995, “The Inhibitory Helix Controls the Intramolecular Conformational Switching of the C-Terminus of STIM1” (PLoS ONE, 2013):

Target: the molecule itself
Experiment: SEC-MALS; 200 µl of 200 µM protein on Superdex 200 10/300 GL; 20 mM Tris-HCl pH 8.0, 200 mM NaCl, 1 mM DTT, 1 mM EDTA; 0.5 ml/min

B1: STIM1-CIS-DelIH ([…] plus […]) (domain or fragment)
chain: not shown
notes: STIM1, human, […] with the IH region ([…]) deleted: […] joined to […]; source: E. coli, purified following the same protocol as CC1-IH
- stoichiometry N: 2

B2: STIM1-CIS ([…] of STIM1-Ccyto) (domain or fragment)
chain: not shown
notes: STIM1, human, […] (CC1, IH and SOAR regions); source: E. coli, purified following the same protocol as CC1-IH
- stoichiometry N: 2
